PubChem BioAssay (Tox21)
Several values for one entry are separate records, joined by “and”; a condition that tells them apart may be missing. Identical values can stand only once. Inconclusive means that the source gave no clear call. Such entries were picked first, then a sample of the others. For some of these results: Potencies of inconclusive entries are doubtful fits and often do not repeat. Some compounds were tested as several samples or in several runs, with calls that do not always agree. Activity calls are given as the source filed them. Unless noted, calls come from the whole dose curve; as a rule, active = well fitted curve in the direction sought with a large enough effect in the repeat runs; inconclusive = weak or mixed curves; inactive = no such curve, though single readings can be large; an effect the other way counts as inactive or inconclusive.

Columns and labels:
[1] = qHTS assay to identify small molecule HDAC inhibitors (AID 1259364);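 note: wild-type HCT-116 cells with endogenous class I/II HDAC activity; top concentration of the series differs between compounds; % is set by controls: 0 for no effect and ±100 for the full control effect; nearly all actives have a fitted effect of over 45% in size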
Procedure, shortened: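 Quantitative high-throughput format: overnight-seeded HCT-116 cells got compounds for 2 hr at 37C; HDAC-Glo I/II reagent added, 30 min RT, luminescence measured.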

[2] = qHTS assay to identify small molecule antagonists of the estrogen receptor beta (ER-beta) signaling pathway - cell viability counter screen (AID 1259382); note: nearly all actives have a fitted effect of over 55% in size; note: potency is the fitted concentration of half-maximal effect
Procedure, shortened: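 Viability is scored by CellTiter-Glo luminescence (30 min, room temperature) in ER-beta-UAS-bla HEK293T wells already read for reporter fluorescence. Compound exposure lasts 16 hr at 37C alongside 1nM 17-beta-estradiol in charcoal-stripped serum medium.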

[3] = biological target: Progesterone receptor (Homo sapiens) (UniProt P06401); experiment: qHTS assay to identify small molecule agonists of the progesterone receptor (PR) signaling pathway (AID 1346784; calls by dose curve; note: % is set by controls: 0 for no effect and ±100 for the full control effect; nearly all actives have a fitted effect of over 30% in size); details: PR-UAS-bla HEK293T, beta-lactamase FRET ratio, 16 h; activation: at 92.4 µM (top of the series) unless noted
Procedure, shortened: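 Using charcoal-stripped serum (2%) to limit endogenous steroids, PR-UAS-bla HEK 293T cells received compounds for 16 hr at 37C after 6 hr plating; beta-lactamase FRET fluorescence was recorded following 2 hr substrate loading at room temperature.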

[4] = biological target: Progesterone receptor (Homo sapiens) (UniProt P06401); experiment: qHTS assay to identify small molecule antagonists of the progesterone receptor (PR) signaling pathway (AID 1346795; active = well fitted inhibition curve with a large enough effect in the signal ratio in the repeat runs, not every such curve was filed as active; inconclusive = weak or mixed curves; the % refers to the signal ratio; note: potency is the fitted concentration of half-maximal effect; for activity change, negative = inhibition: % is set by controls: 0 for no effect and ±100 for the full control effect); details: PR-UAS-bla HEK293T, beta-lactamase FRET ratio, 16 h; activity change, negative = inhibition: at 92.4 µM (top of the series) unless noted
Procedure, shortened: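 Inhibition of R5020-induced (1 nM final) beta-lactamase reporter signal in PR-UAS-bla HEK293T cells was scored by FRET fluorescence after overnight (16 hr) compound treatment.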

[5] = qHTS assay to identify small molecule agonists of the sonic hedgehog signaling (Shh) pathway - cell viability counter screen (AID 1259366); note: nearly all actives have a fitted effect of over 50% in size; note: potency is the fitted concentration of half-maximal effect
Procedure, shortened: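 After a 4hr attachment at 37C, NIH/3T3 cells bearing an integrated Gli1-driven luciferase reporter were dosed with compounds. Treatment lasted 24hr, with the final hour including CellTiter-Fluor for a fluorescence viability measurement.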

[6] = qHTS assay to identify small molecule antagonists of the sonic hedgehog signaling (Shh) pathway (AID 1259369; calls by dose curve; note: potency is the fitted concentration of half-maximal effect; nearly all actives have a fitted effect of over 45% in size)
Procedure, shortened: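 Stable Gli1-Luc reporter NIH/3T3 clone; quantitative HTS in stimulated mode with conditioned medium. Luminescence measured after 24hr compound treatment at 37 C.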

[7] = biological target: Estrogen receptor beta (Homo sapiens) (UniProt Q92731); experiment: qHTS assay to identify small molecule agonists of the estrogen receptor beta (ER-beta) signaling pathway (AID 1259377; active = well fitted activation curve with a large enough effect in the signal ratio in the repeat runs, not every such curve was filed as active; inconclusive = weak or mixed curves, or effect the other way; the % refers to the signal ratio; note: potency is the fitted concentration of half-maximal effect; for activation: % is set by controls: 0 for no effect and ±100 for the full control effect); details: ER-beta-UAS-bla HEK293T, beta-lactamase FRET ratio, 16 h; activation: at 92.4 µM (top of the series) unless noted
Procedure, shortened: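 In HEK293T cells bearing a UAS-beta-lactamase reporter under ER-beta control, DMSO-delivered compounds were incubated for 16 hr at 37C. Activity was detected as fluorescence 2 hours after LiveBLAzer B/G FRET substrate addition.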

[8] = biological target: Estrogen receptor beta (Homo sapiens) (UniProt Q92731); experiment: qHTS assay to identify small molecule antagonists of the estrogen receptor beta (ER-beta) signaling pathway (AID 1259378; active = well fitted inhibition curve with a large enough effect in the signal ratio in the repeat runs, not every such curve was filed as active; inconclusive = weak or mixed curves, or effect the other way; inactive = no such curve, though single readings can be large or run the other way; the % refers to the signal ratio; note: potency is the fitted concentration of half-maximal effect; for activity, negative = inhibition: % is set by controls: 0 for no effect and ±100 for the full control effect); details: ER-beta-UAS-bla HEK293T, beta-lactamase FRET ratio, 16 h; activity, negative = inhibition: at 92.4 µM (top of the series) unless noted
Procedure, shortened: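 ER-beta-UAS-bla HEK293T cells in 2% charcoal-stripped FBS medium treated with compound plus 1nM final 17-beta-estradiol for 16 hr at 37C. Beta-lactamase reporter read by FRET substrate fluorescence after 2 hours at room temperature.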

[9] = qHTS assay to identify small molecule agonists of the estrogen receptor beta (ER-beta) signaling pathway - cell viability counter screen (AID 1259380); note: nearly all actives have a fitted effect of over 30% in size; note: potency is the fitted concentration of half-maximal effect
Procedure, shortened: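 Steps: plate ER-beta-UAS-bla HEK293T cells, rest 6 hr; add compounds in DMSO; incubate 16 hr at 37C, 5% CO2; add FRET substrate 2 hr; add CellTiter-Glo, wait 30 min at room temperature; read luminescence.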

[10] = qHTS assay to identify small molecule antagonists of the sonic hedgehog signaling (Shh) pathway - cell viability counter screen (AID 1259367); note: potency is the fitted concentration of half-maximal effect; nearly all actives have a fitted effect of over 55% in size
Procedure, shortened: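 Fluorescence read-out (CellTiter-Fluor, 1 hr at 37C) taken after 23 hr compound treatment of 3T3 Gli1-Luc cells stimulated with conditioned medium. Cells were seeded at 2,000 per well and pre-incubated 4 hr.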

[11] = qHTS assay to identify small molecule agonists of the estrogen receptor alpha (ER-alpha) signaling pathway in the presence of an antagonist - cell viability counter screen (AID 1259386);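 note: potency is the fitted concentration of half-maximal effect; cells exposed to compounds for 22 h at 37 °C before the viability read; nearly all actives have a fitted effect of over 30% in size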
Procedure, shortened: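 In this counter screen, compound effects on VM7Luc4E2 viability were tested in the presence of the antagonist ICI-182,780 at 10.0nM final. Compounds were dosed at 15 concentrations, exposure lasted 22hr, and the CellTiter-Fluor signal was read.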

[12] = qHTS assay to identify small molecule agonists of the progesterone receptor (PR) signaling pathway - cell viability counter screen (AID 1346799; calls by dose curve; note: nearly all actives have a fitted effect of over 45% in size; note: potency is the fitted concentration of half-maximal effect)
Procedure, shortened: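 Cytotoxicity in PR-bla HEK293T cells: 16 h compound, 37C; CellTiter-Glo added post-FRET read; luminescence after 30 min RT.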

[13] = qHTS assay to identify small molecule agonists of the androgen receptor (AR) signaling pathway in the presence of an antagonist - cell viability counter screen (AID 1259379); note: nearly all actives have a fitted effect of over 25% in size; note: potency is the fitted concentration of half-maximal effect
Procedure, shortened: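 Nilutamide-containing (3.0uM final) MDA-kb2 cultures, 3,000 cells/well, were treated with compounds across 15 concentrations. After 16 hr at 37C with no CO2, cell viability was determined by CellTiter-Fluor fluorescence in the luciferase assay wells.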

[14] = biological target: Thyrotropin receptor (Homo sapiens) (UniProt P16473); experiment: qHTS assay to identify small molecule antagonists of the thyroid stimulating hormone receptor (TSHR) signaling pathway (AID 1259385; calls by dose curve; note: nearly all actives have a fitted effect of over 20% in size; note: potency is the fitted concentration of half-maximal effect; for activity change, negative = inhibition: % is set by controls: 0 for no effect and ±100 for the full control effect); details: TSHR-HEK293 cAMP HTRF, TSH-stimulated antagonist mode; activity change, negative = inhibition: at 92.4 µM (top of the series) unless noted
Procedure, shortened: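 TSHR-HEK293 cells (800/well) plated 18 h, then compounds with Ro20-1724 and TSH at 1.5 ng/mL final, 30 min at room temperature. cAMP quantified by HTRF (cAMP-d2/anti-cAMP-cryptate, 1 h); 15 concentrations in triplicate.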

[15] = qHTS assay to identify small molecule antagonists of the progesterone receptor (PR) signaling pathway - cell viability counter screen (AID 1346798); note: nearly all actives have a fitted effect of over 50% in size; note: potency is the fitted concentration of half-maximal effect
Procedure, shortened: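 ATP content as viability readout: CellTiter-Glo luminescence, 30 min room temperature, in PR-UAS-bla HEK293T cells after 16 hr compound/R5020 treatment at 37C and 5% CO2.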

[16] = qHTS assay to identify small molecule antagonists of the TGF-beta/Smad signaling pathway - cell viability counter screen (AID 1346824); note: potency is the fitted concentration of half-maximal effect; nearly all actives have a fitted effect of over 50% in size
Procedure, shortened: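 SBE-bla HEK 293T cells, incubated overnight, then compound plus 0.25 ng/mL TGF-beta1 (stock added) for 5 hr at 37 C. Viability was read in the same wells by CellTiter-Glo luminescence after 30 min at room temperature.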
Tags give direction and shape of the fitted curve or compound fluorescence and quenching.

Chain of UniProt P06401 (P06401 whole entry, looked up): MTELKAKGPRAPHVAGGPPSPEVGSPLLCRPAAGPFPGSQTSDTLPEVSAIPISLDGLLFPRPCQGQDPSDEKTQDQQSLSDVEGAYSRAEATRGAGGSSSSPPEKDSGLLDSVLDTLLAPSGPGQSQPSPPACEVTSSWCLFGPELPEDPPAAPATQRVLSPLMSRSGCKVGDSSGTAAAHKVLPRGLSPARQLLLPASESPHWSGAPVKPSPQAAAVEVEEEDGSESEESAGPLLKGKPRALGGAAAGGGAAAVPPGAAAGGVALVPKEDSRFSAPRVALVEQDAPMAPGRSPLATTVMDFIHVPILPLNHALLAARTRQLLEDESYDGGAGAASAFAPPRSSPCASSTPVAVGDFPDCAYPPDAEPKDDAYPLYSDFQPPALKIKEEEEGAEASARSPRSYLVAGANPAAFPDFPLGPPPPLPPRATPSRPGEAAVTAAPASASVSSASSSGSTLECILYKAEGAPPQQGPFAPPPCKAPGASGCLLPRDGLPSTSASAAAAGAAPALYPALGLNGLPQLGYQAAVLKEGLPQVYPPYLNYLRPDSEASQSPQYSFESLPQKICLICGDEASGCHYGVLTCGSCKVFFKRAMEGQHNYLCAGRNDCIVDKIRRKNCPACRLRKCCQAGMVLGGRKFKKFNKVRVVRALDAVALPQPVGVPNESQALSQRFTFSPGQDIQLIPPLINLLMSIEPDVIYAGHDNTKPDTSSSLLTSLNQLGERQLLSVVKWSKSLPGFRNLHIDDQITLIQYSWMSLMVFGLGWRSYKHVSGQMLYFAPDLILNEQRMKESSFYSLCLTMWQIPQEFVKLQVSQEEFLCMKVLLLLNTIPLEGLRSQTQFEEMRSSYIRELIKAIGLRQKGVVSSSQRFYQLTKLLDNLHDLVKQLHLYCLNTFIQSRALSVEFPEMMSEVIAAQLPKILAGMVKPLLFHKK
Chain of UniProt Q92731 (Q92731 whole entry, looked up): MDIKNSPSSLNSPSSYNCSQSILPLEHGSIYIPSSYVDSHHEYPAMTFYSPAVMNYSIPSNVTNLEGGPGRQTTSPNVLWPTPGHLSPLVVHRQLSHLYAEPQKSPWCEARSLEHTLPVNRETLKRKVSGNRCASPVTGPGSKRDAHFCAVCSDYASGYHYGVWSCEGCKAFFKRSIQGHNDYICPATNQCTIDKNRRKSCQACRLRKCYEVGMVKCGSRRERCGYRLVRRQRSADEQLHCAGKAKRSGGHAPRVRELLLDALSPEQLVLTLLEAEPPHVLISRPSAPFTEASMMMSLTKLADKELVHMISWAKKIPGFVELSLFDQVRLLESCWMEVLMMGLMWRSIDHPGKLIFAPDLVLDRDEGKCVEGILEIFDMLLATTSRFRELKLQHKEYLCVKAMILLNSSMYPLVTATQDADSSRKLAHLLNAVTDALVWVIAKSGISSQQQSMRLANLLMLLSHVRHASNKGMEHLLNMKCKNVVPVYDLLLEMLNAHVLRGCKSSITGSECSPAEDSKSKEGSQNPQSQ
Chain of UniProt P16473 (P16473 whole entry, looked up): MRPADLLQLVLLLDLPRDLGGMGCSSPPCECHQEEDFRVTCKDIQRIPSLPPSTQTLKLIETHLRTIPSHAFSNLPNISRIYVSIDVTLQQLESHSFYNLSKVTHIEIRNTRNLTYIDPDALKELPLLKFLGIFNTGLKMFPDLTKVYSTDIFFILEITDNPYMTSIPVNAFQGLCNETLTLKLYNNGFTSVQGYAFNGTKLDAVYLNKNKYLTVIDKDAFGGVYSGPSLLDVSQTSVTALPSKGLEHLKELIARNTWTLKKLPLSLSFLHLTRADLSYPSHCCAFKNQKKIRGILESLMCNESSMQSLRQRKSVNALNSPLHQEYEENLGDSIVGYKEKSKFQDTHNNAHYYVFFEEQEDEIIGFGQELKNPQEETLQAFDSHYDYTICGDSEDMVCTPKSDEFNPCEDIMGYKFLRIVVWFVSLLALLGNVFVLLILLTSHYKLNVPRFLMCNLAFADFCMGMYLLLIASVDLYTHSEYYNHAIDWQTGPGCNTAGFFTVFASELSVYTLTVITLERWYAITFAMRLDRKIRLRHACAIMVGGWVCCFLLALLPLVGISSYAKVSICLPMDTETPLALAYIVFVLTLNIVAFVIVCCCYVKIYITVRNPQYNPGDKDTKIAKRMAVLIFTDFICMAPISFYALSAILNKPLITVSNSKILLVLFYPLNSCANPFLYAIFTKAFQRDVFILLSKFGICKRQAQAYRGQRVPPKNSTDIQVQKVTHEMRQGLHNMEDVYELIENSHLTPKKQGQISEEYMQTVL

In the case of `Nc1ccccc1C(=O)OCC(O)CO` (centres undefined), the Potency [1] is reported as “inactive”, the Potency [2] is reported as “inactive” and the Potency [3] is reported as “inactive”. The activity change, negative = inhibition [4] was inconclusive: 7.76% [at 42.5 µM].

In the case of `Nc1ccccc1C(=O)Oc1ccc2ccccc2c1`, the Potency [5] is reported as “inactive”, the Potency [6] is reported as inconclusive: 61.1 µM [inhibitor, single point] and the activation [7] is reported as inconclusive: 3.73%. For the same molecule, the activity, negative = inhibition [8] was inconclusive: -41.2%, the Potency [9] was inconclusive: 30.6 µM [cytotoxic, partial curve] and the Potency [4] was active: 30.6 µM.

For `CC(Cc1ccccc1)NCCn1cnc2c1c(=O)n(C)c(=O)n2C` (centres undefined), the Potency [5] was inconclusive: 30.2 µM [cytotoxic, partial curve], the Potency [10] was inconclusive: 53.8 µM [cytotoxic, partial curve] and the Potency [8] was “inactive”. The Potency [11] was inconclusive: 38.1 µM [cytotoxic, partial curve] and the Potency [12] was “inactive”.

In the case of `CN=C=S`, the Potency [5] is reported as inconclusive: 27.6 µM [rising, full curve, poor fit], the Potency [6] is reported as active: 2.19 µM and inconclusive: 131 µM [inhibitor, single point] and the Potency [13] is reported as “inactive”. For the same molecule, the Potency [14] was “inactive”.

For `CN1C(=O)C(O)N=C(c2ccccc2)c2cc(Cl)ccc21` (centres undefined), the Potency [5] was “inactive”, the Potency [6] was inconclusive: 22.4 µM [inhibitor, partial curve, poor fit] and the activity, negative = inhibition [8] was inconclusive: -25.3%. For the same molecule, the activation [3] was inconclusive: 56.7%, the Potency [4] was “inactive” and the Potency [12] was inconclusive: 50.2 µM [rising, partial curve].

For `Clc1ccc(Cl)cc1`, the Potency [5] was inconclusive: 0.968 µM [cytotoxic, single point], the Potency [10] was inconclusive: 0.685 µM [cytotoxic, full curve] and the Potency [8] was “inactive”.

With `COc1cccc(C(=O)NN(C(=O)c2cc(C)cc(C)c2)C(C)(C)C)c1C` the Potency [5] was active: 13.7 µM, the Potency [10] was inconclusive: 13.7 µM [cytotoxic, full curve, poor fit] and the Potency [9] was “inactive”. The Potency [11] was inconclusive: 38.6 µM [cytotoxic, partial curve].

With `CCCC1COC(Cn2cncn2)(c2ccc(Cl)cc2Cl)O1` (centres undefined) the Potency [5] was “inactive”, the Potency [6] was inconclusive: 21.7 µM [inhibitor, partial curve] and the Potency [13] was inconclusive: 78.4 µM [cytotoxic, single point] and inconclusive: 61.1 µM [cytotoxic, partial curve]. For the same molecule, the Potency [9] was inconclusive: 78.4 µM [cytotoxic, single point], the Potency [15] was inconclusive: 44.1 µM [cytotoxic, single point] and inconclusive: 77 µM [cytotoxic, single point] and the Potency [12] was inconclusive: 69.8 µM [cytotoxic, single point] and inconclusive: 68.6 µM [cytotoxic]. For the same molecule, the Potency [16] was inconclusive: 2.23 µM [cytotoxic, single point] and inconclusive: 2.19 µM [cytotoxic, partial curve, poor fit].

In the case of `c1ccc2sc(SNC3CCCCC3)nc2c1`, the Potency [5] is reported as inconclusive: 42.8 µM [rising, partial curve, poor fit], the Potency [6] is reported as inconclusive: 27 µM [inhibitor, partial curve] and the activity, negative = inhibition [8] is reported as inconclusive: -34.5% and inconclusive: -34.8%. For the same molecule, the Potency [14] was inconclusive: 2.41 µM [falling, single point], the activity change, negative = inhibition [4] was inconclusive: -40.8% and inconclusive: -26.5% and the Potency [15] was “inactive”.

In the case of `[Cl][Sb]([Cl])[Cl]`, the Potency [5] is reported as inconclusive: 68.6 µM [cytotoxic, single point], the Potency [6] is reported as inconclusive: 68.6 µM [inhibitor, single point] and the Potency [8] is reported as inconclusive: 54.5 µM [inhibitor]. For the same molecule, the Potency [4] was inconclusive: 68.6 µM [rising, single point] and the Potency [12] was inconclusive: 24.3 µM [rising, full curve].

For `Cc1cc(C2CC2)nc(Nc2ccccc2)n1`, the Potency [5] was active: 48.6 µM, the Potency [10] was inconclusive: 68.6 µM [cytotoxic, single point] and the Potency [7] was inconclusive: 2.73 µM [fluorescent, full curve]. For the same molecule, the Potency [9] was inconclusive: 24.3 µM [rising, single point], the activation [3] was inconclusive: -14.9% and the Potency [4] was active: 30.6 µM. For the same molecule, the Potency [15] was inconclusive: 77 µM [cytotoxic, single point] and the Potency [12] was inconclusive: 77 µM [cytotoxic, single point].

For `CCOP(=O)(O)OCC` (tested in a mixture with another compound), the Potency [5] was active: 48.2 µM, the Potency [10] was active: 42.9 µM and the Potency [2] was active: 30.4 µM. The Potency [4] was active: 60.6 µM, the Potency [15] was inconclusive: 68 µM [cytotoxic, single point] and the Potency [12] was inconclusive: 68 µM [cytotoxic, single point].
